# Test results as given in PubChem BioAssay AID1508624 (National Center for Advancing Translational Sciences (NCATS), 2021).
# Hit rate of the full screen: of about 48,000 compounds, about 120 (0.25%) were called active. Roughly 4% stayed inconclusive and do not appear here. Calls follow the shape of the dose curve; as a rule, active = well fitted activation curve with a large enough effect; inconclusive = small, poorly fitted or top-dose-only effect, or another doubt; inactive = no such curve, though single readings can be large or run the other way. This is one part of the list.
# Assay: Primary qHTS for Identification of Small Molecule Activators of Huntingtin-Antisense Promoter Activity; also: nearly all actives have a fitted effect of over 55% in size
# Settings: HEK293 HTT-AS promoter firefly luciferase reporter (activity 0% = vehicle and -100% = no light), 24 h; series mostly up to 57.5 µM; activity change, positive = activation: at the top concentration
# In short: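 Luminescence was read after Dual-Glo reagent and a 10 min room-temperature incubation. Values were normalized to vehicle (0% activity) and zero RLU (-100% activity). Reporter HEK293 cells had been exposed to compounds (up to 57.5 uM final) for 24 h.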
# Potency is read from the fitted curve at half-maximal effect.
Compound,"activity change, positive = activation",Potency
COc1ccc(-c2cn3c(n2)sc2cc(C(=O)Nc4ccc(C)c(C)c4)ccc23)cc1,inactive: 10.1%,
O=C(Cc1ccccc1)N(Cc1cccnc1)c1nc2c(F)cc(F)cc2s1,inactive: -27.7%,
CCOC(=O)c1c(C)oc2ccc(N(C(=O)Oc3ccccc3)S(=O)(=O)c3ccc(CC)cc3)cc12,inactive: -29%,
CC(C)c1ccc(OCC(=O)NC(Cc2c[nH]c3ccccc23)C(=O)O)cc1 (configuration not stated),inactive: -6.81%,
Cc1cccc(OC(=O)CSc2nnc(CNC(=O)c3ccccc3)o2)c1C,inactive: -9.45%,
O=C(Nc1ccc(F)cc1)c1oc2ccccc2c1NC(=O)C12CC3CC(CC(C3)C1)C2,inactive: -8.98%,
COc1ccc(CCNC(=O)c2ccc3c(c2)N(Cc2c(F)cccc2Cl)C(=O)CS3)cc1OC,inactive: -41.9%,
CCc1ccccc1N(CC)C(=O)c1c(C)oc2ncnc(N3CCOCC3)c12,inactive: -7.13%,
CCOC(=O)C1CCN(c2nc3c(S(=O)(=O)c4ccccc4)nnn3c3ccsc23)CC1,inactive: -4.9%,
COc1ccc(NC(=O)Nc2nnc(C)s2)cc1,,active: 11.2 µM
Cc1ccccc1C(=O)Nc1ccc(OCc2cc(=O)n3cccc(C)c3n2)cc1,inactive: -11%,
CC1=C(c2ccc(C)c(C)c2)S(=O)(=O)N=C1N1CCC(C(=O)N2CCC(C(N)=O)CC2)CC1,inactive: -5.57%,
O=C1COc2cc(S(=O)(=O)NCc3ccco3)c(Cl)cc2N1,inactive: -3.38%,
O=c1c2oc3ccccc3c2n(Cc2ccc(Cl)cc2)c(=O)n1Cc1ccco1,inactive: -20.4%,
Cc1cccc(CN2CCC(CNC(=O)c3c(C)oc4ncnc(N5CCCCC5)c34)CC2)c1,inactive: 0.245%,
CCN(C(=O)C1CCC(CNS(=O)(=O)c2cccc3nsnc23)CC1)c1ccc(C)c(C)c1 (configuration not stated),inactive: -35.4%,
CC(Sc1nc(=O)cc(N)n1CCc1ccccc1)C(=O)Nc1ccc(Cl)cc1 (configuration not stated),inactive: 3.34%,
CCOC(=O)c1c(-c2ccc(Br)cc2)csc1NC(=O)c1ccc(F)cc1,inactive: -10.9%,
COC(=O)c1ccccc1NC(=O)CSc1nc2ccccc2nc1Cc1ccccc1OC,inactive: -7.07%,
CN(C(=O)c1cc2nc(-c3ccco3)cc(C(F)(F)F)n2n1)c1ccc(OC(F)(F)Cl)cc1,inactive: -12.4%,
CCn1c(=O)sc2cc(NS(=O)(=O)c3ccc(F)c(C)c3)ccc21,inactive: -51.6%,

Compound,"activity change, positive = activation",Potency
O=C(CCS(=O)(=O)c1cc(Br)cc2c1N(C(=O)C1CC1)CC2)NCc1ccc(Cl)cc1,inactive: -22.5%,
CCN(Cc1ccncc1)C(=O)C(CO)c1ccccc1 (configuration not stated),inactive: -9.09%,
CN(C)CCOC1=Cc2ccccc2Sc2ccc(Cl)cc21,inactive: -14.2%,
COc1ccc(C2c3c(n(C)c4ccccc34)C(=O)N2CC(=O)Nc2ccc(C)c(Cl)c2)cc1 (configuration not stated),inactive: -33.5%,
Cc1ccc(-c2nc(SCCOc3ccccc3C)n3[nH]c(=O)cc3n2)cc1,inactive: 3.86%,
Cc1ccc(NC(=O)Cn2cc(S(=O)(=O)c3ccc(C)cc3)c(=O)c3cc4c(cc32)OCO4)cc1,inactive: -21.5%,
COC(=O)Nc1nc2ccc(C(=O)C3CC3)cc2[nH]1,inactive: 6.52%,
CNS(=O)(=O)c1cn(CC(=O)N2CCN(c3ccccc3F)CC2)cc1S(=O)(=O)NC,inactive: -9.46%,
CCc1ccc(OC(C)c2nc(-c3ccc(-n4cccc4)cc3)no2)cc1 (configuration not stated),inactive: -14.9%,
CCOc1ccc(CCNc2ncnc3onc(-c4ccc(Cl)cc4)c23)cc1OCC,inactive: -33.2%,
C[C@@]12C(=O)OC(=O)[C@]1(C)C1CCC2O1,inactive: -48.1%,
COc1ccc(NC(=O)C(c2ccc(C)cc2)N(C)C(=O)/C=C\c2ccc3c(c2)OCO3)cc1 (configuration not stated),inactive: -18.4%,
OC(CCN1CCCCC1)(c1ccccc1)C1CC2C=CC1C2 (configuration not stated),inactive,
O=S(=O)(NCc1csc(-c2ccccc2)n1)c1cccc(F)c1,inactive: -11%,
Cc1ccc(CN(Cc2ccco2)C(=O)COc2ccccc2C)cc1,inactive: -21.3%,
CCOC(=O)c1ccc(NC(=O)CCc2c(C)nc3c(c(C)nn3-c3ccccc3)c2C)cc1,inactive: -5.77%,
CC(=O)N1CCOc2cc(S(=O)(=O)NC(C)c3ccccc3)c(Cl)cc21 (configuration not stated),inactive: -17.6%,
Cc1cccc(C(=O)Nc2sc3c(c2C(=O)N2CCCCC2)CCC(C)C3)c1 (configuration not stated),inactive: -25.4%,
CCN(CC)CCNC(=O)c1c(C)oc2ncn(C)c(=O)c12,inactive: -2.41%,
CCN(CC)CC#CCOC(=O)C(O)(c1ccccc1)C1CCCCC1 (configuration not stated),inactive: -10.6%,
Cc1oc2ccc(O)c(CN(C)Cc3ccccc3)c2c1C(=O)Nc1ccccc1,inactive: -33.9%,

Compound,"activity change, positive = activation",Potency
O=C(CCc1cn(Cc2ccc(F)cc2)c2ccccc12)NCCc1ccc(Cl)cc1,inactive: -23%,
Cn1cnc(S(=O)(=O)N2CCC(C(=O)NCc3ccccc3Cl)CC2)c1,inactive: -2%,
CCN(c1ccccc1)c1nnc(NC(=O)Nc2ccc(Br)cc2)s1,inactive: 15.2%,
Cc1ncc([N+](=O)[O-])n1CCO,inactive,
Cc1ccc(C(=O)CC2(O)C(=O)N(Cc3ccccc3F)c3ccccc32)cc1 (configuration not stated),inactive: -33%,
COc1cccc(NC(=O)CSc2nc3ccc(NC(=O)c4cccs4)cc3s2)c1,inactive: -14.8%,
CCOC(=O)c1c(NC(=O)/C=C/c2ccc(C(C)C)cc2)sc2c1CCC2,inactive: -13.5%,
Cc1cc(C)cc(NC(=O)CN(c2cc(C(F)(F)F)ccc2Cl)S(=O)(=O)c2ccccc2)c1,inactive: -26.1%,
O=C(CCS(=O)(=O)c1nc(-c2cccs2)cc(C(F)(F)F)n1)Nc1ccc(OC(F)(F)F)cc1,inactive: -19.2%,
COC(=O)c1ccccc1NC(=O)C1=CC(c2ccc(C)cc2)=NS(=O)(=O)N1C,inactive: -22.7%,
COc1ccc(C2c3c(oc4ccccc4c3=O)C(=O)N2Cc2ccc3c(c2)OCO3)cc1 (configuration not stated),inactive: -16.5%,
COc1ccc(OC)c(NC(=O)c2cc3c(n(-c4ccc(Cl)cc4)c2=O)CC(C)(C)CC3=O)c1,inactive: -17.1%,
O=C(CN1CCN(Cc2ccc(F)cc2)C1=O)NCc1ccccc1Cl,inactive: -1.11%,
COc1cccc(-c2nn(C)c3sc(C(=O)NCc4cc(OC)ccc4OC)cc23)c1,inactive: -22.8%,
CCN(CC)CCSC(=O)C(c1ccccc1)c1ccccc1,inactive: 2.33%,
O=C(Cn1c(SCc2cccc(F)c2)nc2cccnc21)Nc1ccc(F)c(Cl)c1,inactive: -14.5%,
COc1ccccc1NC(c1ccc(Cl)cc1)c1nnc(-c2cccc(F)c2)o1 (configuration not stated),inactive: -23.2%,
CC(=O)c1ccc(NC(=O)CCc2c(C)nc3c(c(C)nn3-c3ccc(C)cc3)c2C)cc1,inactive: 25.7%,
CC(C)(C)c1ccc(Cn2c(Cc3ccccc3)nc3ccccc32)cc1,inactive: -27.5%,
CCOc1ccc(-c2nonc2NC(=O)c2oc3ccc(F)cc3c2C)cc1,inactive: -39.4%,
